Positions count from the first letter of the chain named. Read-outs that look alike come from different tables or passages of the source.
B1: DOMAIN_9060 (protein, listed as Cricetulus griseus)
chain: FQELVVFRDVAVEFCKDEWECLGPDQRSLYRDVMLETYSNFVSLGLAVSKPSVISLLEQGKEPWMVEQAGWYPDLLSVNET
B2: DOMAIN_9159 (protein, listed as Dipodomys ordii)
chain: AVTQLTFEDVAVDFTPEEWRCLTPAQRALYRDVMLDTYRNLVSVGVSPPSMSVILPLEFQEEPWVAQSHVTTLGGLNGWEG
B3: DOMAIN_9174 (protein, listed as Peromyscus maniculatus)
chain: MVTFKDVAVAFSEEELRLLDPAQRKLYQEVMVENFQNLLSVGINNQSELRAVQDGGSHEALSCWQIWQRVIDNLTRCQDSM
B4: DOMAIN_9175 (protein, listed as Peromyscus maniculatus)
chain: KENAVTYDDIHIDFTREEWTLLDPSQKNLYKDVMLETYRHLTTIGYSWEDHNIEKYCESSRRHKSTVQRHKRTNTNENPYE
B5: DOMAIN_9189 (protein)
chain: EPWAITFADVAVYFSPEEWGCLQPTQRALYRDVMRDTYVLLSALGGGGAKPALISWVEREAELWDPDAQDPEVPKWPTEAD
modifications: Heterocephalus glaber
B6: DOMAIN_9192 (protein, listed as Mus caroli)
chain: SQGLVTFGDVAVVFSQEEWEWLSSEQRSLYWKVMLDNYRNLASLGLCASKPDMITSLEQGRDPWMMKRKMRKGQRLDLKAM
B7: DOMAIN_9235 (protein, listed as Mus musculus)
chain: DMGLVSFEDVAVDFTWQEWQELDAAQRTLYRDVMLENYRSLVWLGHCLAKPELISKLEEGFEPWGVAEATEQCLPCAEDQT
B8: DOMAIN_9538 (protein, listed as Mus musculus)
chain: MNAVTYEDVHVNFTQEEWALLDPSQKKLYKDVMLETYRNLNAIGFNWDSKIFKNIVQVLEDTEGMKEVRVQRKRLNILNVI
B9: DOMAIN_9250 (protein)
chain: QQRPVSFKDVVVGFTQEEWRRLNPAQRALYRDVMLETYSNLVSVGYEGTKPDVILRLEQEEAPWICEAVCPGCHCQEDFLS
modifications: Marmota monax
B10: DOMAIN_9265 (protein, listed as Mus musculus)
chain: VEEPVTFKDVAVAFTQEEWGQLDLVQRTLYRDVMLETYGHLLSVGNQIAKPEVISLLEQGEEPWSVEQGYPKSSCPEWMRN
B11: DOMAIN_9290 (protein, listed as Peromyscus maniculatus)
chain: MNTVTYDDVHIGFTWEEWTLLDPSQKNLYKDVMLETYRNLAIIGYSWEDHNIEEHYQNSRRHERHERSQTGMKTSVHTQCS
B12: DOMAIN_9313 (protein, listed as Mus musculus)
chain: KPWAVNFADVAVYFSPEEWRYLRPAQRALYREVMRETYGLLAYLDVGCAKPALICWVEEESEVWGPCAQDPEVAMCRTEVH
B13: DOMAIN_9324 (protein, listed as Peromyscus maniculatus)
chain: MEEMLSFRDVAIDFSAEEWECLDLAQWNLYRDVMLENYSNLVFLGLASCKPYLVTFLEQRQGPSDVKRQAAAPVHPGGTPY
B14: DOMAIN_9356 (protein, listed as Ictidomys tridecemlineatus)
chain: EPGAVSFADVAVYFSPEEWGCLRPAQRVLYRDVMRETYGHLGALGFPGPKPALISWMEQESEAWSSAAQDPEEGESLGGAL
B15: DOMAIN_9389 (protein)
chain: FQESVTFRDVAIAFSQQEWQSLDSSQRDLYRDVMLENYRNLVSLGHSLSKPHVITLLEQWKDPWETGRKDKRRRCADLQLE
modifications: Marmota monax
B16: DOMAIN_9424 (protein, listed as Dipodomys ordii)
chain: B14 chain with E1K, V28A, F46L, Q59G, S65N, S66P, S76N
B17: DOMAIN_9435 (protein, listed as Fukomys damarensis)
chain: EPWAITFADVAVYFSPEEWGCLQPTQRALYRDVMRDTYVLLSALGGGGGAKPALISWVERESELWDSDAQDPEVPKWPTEA
B18: DOMAIN_9446 (protein)
chain: AQESVMFSDVSIDFSQEEWECLTDDQRHLYRDVMLENYSNLVSMGHSISKPNVISYLEQGKEPWLVDRGRTRGQWPVLEST
modifications: Marmota monax
B19: DOMAIN_9503 (protein, listed as Ictidomys tridecemlineatus)
chain: B10 chain with E2P, K8E, A13D, S65L, G69T, Y70C, K72E, N81D
B20: DOMAIN_9526 (protein, listed as Mesocricetus auratus)
chain: MEELLSFPDVAIDFSAEECECLDLAQWNLYKEVMLENYSNLVFLGLSFSKPYLVTFLEQSSEPWSVKRKSAAASHPGSKPH
B21: DOMAIN_9530 (protein, listed as Mesocricetus auratus)
chain: DMGLVSFEDVAVDFTWQEWQELDAAQRTLYRDVMLENYSSLVSLGNCLDKPELISKLEQGLVPWSGAEATEQYQPDVHKWS
B22: DOMAIN_9542 (protein, listed as Octodon degus)
chain: VTFEDVAVNFSREEWALLDPPQRKLYRDVMWETLRHLAAVDDQQSEDEFRNFQKRVRSEEVEKASQYTLWYQHGEMDSRTP
B23: DOMAIN_9544 (protein, listed as Octodon degus)
chain: QGSVTFEDVAVHFSWDEWHLLDKAQRCLYRDVMAENLALITSLGLWPGVGDAEASSEQSASLKGMSQVRTFREGLSPQRAQ
B24: DOMAIN_9563 (protein, listed as Mus musculus)
chain: GCCSLETHSIRDKNAVTYGDVHVNFTQEEWALLDPSQKKLYKDVMLETYRNLNAIGFNWDDKNTEEHCPSTRRWRRFYRMQ
B25: DOMAIN_9576 (protein, listed as Octodon degus)
chain: SQGSVSFKDVTVGFTQEEWQHLDPSQKSLYRDVMLENYSHLVSVGYCVTKPELIFRLEQGEEPWVLEEEFPRPGFLEFWKT
B26: DOMAIN_9643 (protein, listed as Dipodomys ordii)
chain: B2 chain with P16Q, P24Q, A28T, R39G, E62D, Q67K, L73P, G75E
B27: DOMAIN_9697 (protein, listed as Octodon degus)
chain: VHGSVTFRDVAIDFCQEEWECLGPIQRDLYRDVMLENYSNLIAVGSTISKPDVIALLEQGTEPWMGVRKDRSRWYPGLNSG
B28: DOMAIN_9704 (protein, listed as Dipodomys ordii)
chain: B2 chain with D13Y, P16R, A28T
B29: DOMAIN_9713 (protein, listed as Cricetulus griseus)
chain: KPGAVSFADVAVYFSPEEWGCLRPAQRALYREVMRETYGLLGALGVGGAKPALISWVEEEAELWGPGAQDPEVAMCQTQAD
B30: DOMAIN_10577 (protein, listed as Colobus angolensis)
chain: B14 chain with E1K, V28A, S66P, E73K, S76R, L81R
B31: DOMAIN_9723 (protein, listed as Mus caroli)
chain: MEDLLSFTDVAIDFSADECECLDSAQWNLYKEVMLENYSNLVFLGLAFSKPHLVTFLEQSSDPWSVKRKASAAISLGSKPH
B32: DOMAIN_9725 (protein, listed as Mus caroli)
chain: LQEAVTFNDVAIDFSQEEWEWLNSAQRSLYRTVVLENYRNLVSVGACISKPSLISLLEHGKEPWEVKGQVTGSRVQGGESV
B33: DOMAIN_9776 (protein)
chain: AHGSVTFRDVAMDFSQQEWECLNPFQKTLYRDVMMENYGNLVSLGHSISKPDVITLLEQGKEPWMIVKKETRKWRKDLESR
modifications: Marmota monax
B34: DOMAIN_9787 (protein, listed as Mus caroli)
chain: B1 chain with Q2K, D17E, D25E, T37N, V48I, S52T, V53I, M65I, V78E, T81A
B35: DOMAIN_9789 (protein, listed as Mus musculus)
chain: FQVPVTFRDVAVYFCREEWECLSPSQRTLYRNVMLENFRNLNELGCCSRRPGLITRLEQWDEPWVDDWDRSEFPDGQKSFC
B36: DOMAIN_9822 (protein, listed as Ictidomys tridecemlineatus)
chain: EPGAVSFADVAVYFSLEEWGCLRPSQRALYRDVMRETYLHLSALGGGGTKPALISWVEEEAELWHPDAQDPEVAKCPTEAD
B37: DOMAIN_9824 (protein)
chain: QGSVMFSDVSIIFSQEEWEYLDREQRNLYRNVMMENYSNLVSLAGCFISKPDVITLLEQGKDPWKVVRKGRKRYSDLETSH
modifications: Heterocephalus glaber
B38: DOMAIN_9827 (protein, listed as Mus caroli)
chain: MDAVTFMDVHVNFSQEEWALLNPSQKSLYKDVMLETYWNLTCIGYEWEDHNSEECCQSSRRHGRYFNSSQYSTCKAKGYGK

Tested on: HBEGF locus
Type: cell-based, human
[1] = repressor domain in dXR, repression of the HBEGF gene, abundance of domain in library after vs before diphtheria toxin selection
[2] = high-throughput screen of dXR repression of the HBEGF gene, change in abundance of each domain in the library before and after diphtheria toxin selection

Molecule	Log2 (fold change) [1]	Log2 (fold change) [2]
B1	2.5974	–
B2	3.0141	–
B3	2.5194	–
B4	2.4231	–
B5	3.3801	–
B6	2.7981	–
B7	2.7307	–
B8	–	3.5443
B9	3.466	–
B10	2.1221	–
B11	4.256	–
B12	2.7692	–
B13	3.1782	–
B14	2.9297	–
B15	3.1785	–
B16	3.771	–
B17	3.1672	–
B18	2.8722	–
B19	2.9864	–

Molecule	Log2 (fold change) [1]	Log2 (fold change) [2]
B20	2.9435	–
B21	2.7003	–
B22	2.6734	–
B23	2.9143	–
B24	3.7261	–
B25	2.1952	–
B26	3.4306	–
B27	2.7566	–
B28	3.1674	–
B29	3.0323	–
B30	–	4.1248
B31	2.1903	–
B32	2.9654	–
B33	2.6258	–
B34	3.2962	–
B35	2.5801	–
B36	2.9382	–
B37	3.1306	–
B38	2.1904	–
